Test results published in ChEMBL document CHEMBL1157539, “Thousands of chemical starting points for antimalarial lead identification” (Nature, 2010).
In all, about 13,000 compounds were measured (“IFI”: median about 4, highest 2% from about 17 on). Some of the results follow.

Assay: GSK_TCMDC: Inhibition Frequency Index (IFI). The number of non-kinase HTS assays where a compound showed > 50 % inhibition, expressed as a percentage of the number of such assays in which the compound was tested (-0 is zero)
Assay type: functional

Row | Structure (SMILES) | IFI [%]
1 | Oc1cccc(-c2nc(-c3cccc(I)c3)c(-c3ccc(-c4nc(-c5cccc(O)c5)[nH]c4-c4cccc(I)c4)cc3)[nH]2)c1 | 6.12
2 | CCC/C=C/c1c(CNCCCNc2cc(=O)c3ccccc3[nH]2)sc(CC)c1Br | 7.86
3 | Cc1cccc2nc(-c3cccc(-c4cccc(CNCc5ccccc5)c4)c3)[nH]c12 | 5.66
4 | CN1CCN(c2cc(-c3ccncc3)nc(-c3cccnc3)n2)CC1 | 0
5 | COc1ccccc1N1CCN(CCCCN(C(=O)Nc2cccc(Cl)c2)C(=O)Nc2cccc(Cl)c2)CC1 | 1.48
6 | CN(CCN1CCCC1)c1nc2cc(-n3cnc4cc(-c5ccc(Cl)cc5)sc4c3=O)ccc2[nH]1 | 12.4
7 | COc1ccc2nc3cc(Cl)ccc3c(NCc3ccccc3)c2c1 | -0
8 | CN(Cc1ccc(C#N)cc1)C1CCN(c2cc(NC(=O)c3cccc(F)c3)ccn2)CC1 | -0
9 | COc1ccccc1C1CCN(C2CCC(NC(=O)/C=C/c3ccc(F)c(F)c3)CC2)CC1 (centres undefined) | 6.67
10 | CCn1c(=O)c(C(=O)Nc2cc(Cl)c(OC)cc2OC)nc2ccccc21 | 0
11 | O=C(Nc1cccc(-c2cccc(-c3nc4cc(C(F)(F)F)ccc4[nH]3)c2)c1)c1cccnc1Cl | 9.09
12 | CCCNCc1ccc(-c2ccc(CN(C(=O)c3nn(-c4ccccc4)nc3C)C3CCOCC3)cc2)nc1 | 4.51
13 | CCNc1cc(C(=O)N[C@@H](Cc2ccccc2)[C@H](O)CN[C@H](C)c2ccccc2)cc(N2CCCC2=O)c1 | 3.65
14 | CC(C)(C)c1ccc(C(=O)N2CCC3(CC2)C(=O)N(CC(=O)NCC2CCCO2)CN3c2ccccc2)cc1 (centres undefined) | 1.67
15 | FC(F)(F)c1ccc2[nH]ccc(=NN=Cc3ccc(Cl)cc3)c2c1 | -0
16 | CC1CCC(NCc2c(O)ccc3ccccc23)CC1 (centres undefined) | 3.68
17 | O=C(Nc1ccc(Cl)cc1)N1CCN(C2CCCCC2)CC1 | 0.75
18 | CC(=O)C1C(=O)CCC1=O | 0
19 | CCCCCNc1nc(Nc2ccccc2C)nc2ccccc12 | 0.74
20 | CCOc1cc(Cc2cnc(N)nc2N)cc(OCC)c1OCC | -0
21 | Cc1cccc2nc(-c3ccc(-c4cccc(NC(=O)C(C)CN5CCN(C)CC5)c4)s3)[nH]c12 (centres undefined) | 1.83
22 | COc1ccc(-c2ccc(NC(=O)c3cccc(C#N)c3)cc2)cc1CN(C)C | 4
23 | O=C(NCCCCN1CCC(c2ccc3c(c2OCCO)CCCC3)CC1)c1sc(-c2ccc(C(F)(F)F)cc2)nc1CO | 5.17
24 | COc1ccc(CNCCCCCCNCc2ccc(OC)c3ccccc23)c2ccccc12 | 8.21

Row | Structure (SMILES) | IFI [%]
25 | COc1cc2nc(NCCC(C)C)n3nc(-c4ccccc4)nc3c2cc1OC | -0
26 | CC(C)c1nc(N2CCN(C(=S)NCc3ccccc3)CC2)c(C#N)c2c1COC(C)(C)C2 | 3.57
27 | COc1ccc(-c2ccc(CNC(=O)c3cccc(C#N)c3)c(F)c2)cc1CN1CCCN(C)CC1 | 7.59
28 | CC(Cc1ccc(OCCN2CCN(c3ccc(Cl)cc3)CC2)cc1)NCC(O)c1cccc(C(F)(F)F)c1 (centres undefined) | 18.1
29 | C=CCOC(=O)N1CCC(CNCc2cccc(-c3ccc(-c4nc5cccc(C)c5[nH]4)s3)c2)C1 (centres undefined) | 3.81
30 | Nc1ncnc2cc(-c3cccc(NC(=O)Nc4ccccc4)c3)sc12 | 2.14
31 | O=C(Nc1ccsc1C(=O)NC1CCCCC1)c1ccc(F)cc1 | -0
32 | Cc1cc(N[C@@H](Cc2ccccc2)C(=O)NCCc2ccccc2)nc(NCCc2ccccc2)n1 | 15.9
33 | c1cc(CNC2CCN(CC3CCCCC3)CC2)cc(-n2ccnc2)c1 | -0
34 | COc1ccc(NC(=O)c2c(NC(=O)c3cccs3)sc3c2CCCC3)cc1 | 1.41
35 | N#Cc1ccc(-c2ccc(C(=O)NCCCCN3CCC(c4ccc5c(c4OCC(N)=O)CCCC5)CC3)cc2)cc1 | 3.54
36 | Nc1nccc2ccc(-c3ccc4ncccc4c3)cc12 | 7.95
37 | Cc1nc(N)nc(N)c1-c1ccc(Br)cc1 | 1.52
38 | O=C(Nc1cccc(-c2csc(NC(=O)c3ccc4ccccc4c3)n2)c1)c1ccc2ccccc2c1 | 2.13
39 | Cc1c(Cl)ccc2c(C(=O)Nc3ccncc3)cc(-c3cccnc3)nc12 | 1.52
40 | Cc1nc(C)c(-c2ccc(Oc3ccc(OC(F)(F)F)cc3)cc2)c(OC(=O)c2ccccc2)c1Cl | 0.79
41 | CN1CCCN(c2ccnc3cc4c(cc23)N(C(=O)c2ccc(Cl)cc2Cl)CC4)CC1 | 0.72
42 | CCCCCCCCCC(=O)NCC1CC(Br)=NO1 (centres undefined) | 1.54
43 | Nc1cc(-c2ccc3ccccc3c2)nc2ccccc12 | 5.56
44 | NCCNc1ccnc2cc(Cl)ccc12 | 2.9
45 | O=C(Nc1cccc(CN2CCCN(Cc3cccnc3)CC2)c1)c1cc2ccccc2s1 | 3.94
46 | OC1CCN(c2cc(-c3ccccn3)nc(-c3ccccn3)n2)CC1 | 4.79
47 | CCN(CC(C)O)C(=O)c1ccc(-c2ccc(-c3nc4cccc(C)c4[nH]3)cc2)cc1 (centres undefined) | 1.39
48 | O=C(CCc1cccnc1)Nc1cccc(-c2ccc(-c3nc4cc(C(F)(F)F)ccc4[nH]3)s2)c1 | 3.54

Row | Structure (SMILES) | IFI [%]
49 | Cc1cc(-c2ccc(CNC3Cc4ccccc4C3)cc2)ccc1S(=O)(=O)NCCN1CCCC1 | 14.3
50 | CSc1ccc2nccc(Nc3ccc(Oc4ccccc4)cc3)c2c1 | 3.73
51 | Cc1ccc(OC2CCN(CCCCC3(C)C(=O)Nc4ccccc43)CC2)cc1 (centres undefined) | 2.17
52 | O=C(Nc1ccc(C(F)(F)F)cc1)c1ccc(S(=O)(=O)NCC2CCCN(CC3CCCCC3)C2)cc1 (centres undefined) | 11.9
53 | COc1cc(Cc2cnc(N)nc2N)cc(OCCCCc2nnn[nH]2)c1OC | -0
54 | CCn1c(-c2nonc2N)nc2c(-c3cc4ccccc4s3)ncc(C(=O)N3CCC(N)C3)c21 (centres undefined) | 10.2
55 | COc1cc2c(cc1C(F)(F)F)N(C(=O)Nc1cc(F)c(F)c(-c3cccnc3)c1)CC2 | 1.47
56 | N=C(N)c1ccc2[nH]c(-c3cc4cc(C(=N)N)ccc4o3)cc2c1 | 3.7
57 | CCCN(CCC)C(C)CCC(C)Nc1c2ccc(Cl)cc2nc2ccc(OC)cc12 (centres undefined) | 2.96
58 | COc1ccc2nc3cc(Cl)ccc3c(NCCCCN3CCNCC3)c2c1 | 7.53
59 | Nc1ccnc2ccc(NC(=O)CCCCCc3ccccc3)cc12 | 3.57
60 | O=C(/C=C/c1ccccc1Cl)Nc1ccc(Br)c(OCCN2CCCCC2)c1 | 5.52
61 | Oc1ccc(-c2ccccc2)cc1CN1CCCCC1 | 0.75
62 | N#Cc1ccc(-c2ccc(C(=O)Nc3ccc4c(c3)CCN(C3CCC3)CC4)nc2)cn1 | 2.19
63 | COc1cc(C(=O)N2CCOC(CCN3CCC4c5ccccc5CC43)(c3ccc(Cl)c(Cl)c3)C2)cc(OC)c1OC (centres undefined) | 4.96
64 | CC(C)(C)N1CCC(N(Cc2ccc(-c3ccc(C(F)(F)F)cc3)cc2)C(=O)Cn2c(CCc3cccc(F)c3F)cc(=O)c3cccnc32)CC1 | 14.2
65 | COc1cc(C(=O)N2CCN(C(C)C)CC2)ccc1CN(C)CCCCN1CCN(c2cccc(Cl)c2Cl)CC1 | 14.5
66 | O=C(Nc1ccccc1N1CCOCC1)c1ncoc1-c1ccccc1C(F)(F)F | 3.57
67 | OC(CNCc1cccc(Oc2ccc(Cl)cc2)c1)c1cccc(C(F)(F)F)c1 (centres undefined) | 3.45
68 | Cc1ccccc1Nc1nc(NCc2ccccc2)nc2ccccc12 | 8.7
69 | OCCN1CCN(Cc2ccc(-c3cccc(-c4nc5ccccc5[nH]4)c3)cc2)CC1 | 2.88
70 | N#Cc1cccc(-c2ccc(C(=O)Nc3ccc4c(c3)CCN(C3CCC3)CC4)cn2)c1 | 2.27
71 | CCSc1ccc(C)cc1CON1C(N)=NC(N)=NC1(C)C | 6.34
72 | COc1ccc2nc(C)cc(NCc3cccc4ccccc34)c2c1 | 1.46

Row | Structure (SMILES) | IFI [%]
73 | CCCC(=O)Nc1ccc(Nc2nc(C)cc(N3CCCC3)n2)cc1 | 2.38
74 | Cc1ccc(C2CCN(CCCCNC(=O)c3ccc(-c4ccc(C(F)(F)F)cc4)cc3)CC2)c(O)c1 | 10.3
75 | O=C(Nc1ccc(F)c(Cl)c1)c1cc([N+](=O)[O-])cc2cn[nH]c12 | 5.88
76 | Cc1[nH]c2ccc(C#N)cc2c(=O)c1Br | -0
77 | CC(C)[C@@H](NC(=O)NC1CCC(CCN2C3CCC2CC(OC(=O)C(CO)c2ccccc2)C3)CC1)C(O)(c1ccccc1)c1ccccc1 (some centres undefined) | 7.07
78 | CC(C)(C)c1cc2cc(Nc3ccnc4cc(-c5nccs5)ccc34)ccc2[nH]1 | 4.41
79 | CC(C)(NCc1ccc(OC(F)(F)F)cc1)c1nc(-c2ccc(Cl)c(O)c2)c(-c2ccncc2)[nH]1 | 6.38
80 | Cc1cc(N[C@@H](Cc2ccccc2)C(=O)Nc2ccccc2)nc(Nc2ccccc2)n1 | 4.65
81 | CC(C)C(=O)n1ncc2c3c(N)nc(N)nc3ccc21 | 0
82 | Cn1cnc(CCNC(=O)c2ccc(-c3cccc(-c4nc5cc(C(F)(F)F)ccc5[nH]4)c3)cc2)c1 | 3.77
83 | CCN(CC)CCCC(C)Nc1nc(C=Cc2ccc(Br)cc2)nc2cc(Cl)ccc12 (centres undefined) | 3.65
84 | CN(Cc1cccc(O)c1)C1CCN(c2cc(NC(=O)c3ccc(F)cc3)ccn2)CC1 | 0
85 | CN(C)Cc1ccc(-c2ccc3c(Nc4ccc(Oc5ccccc5)cc4)ccnc3c2)o1 | 7.19
86 | COc1cc(Nc2nccn3c(-c4ccsc4)cnc23)cc(OC)c1OC | 10
87 | Cc1onc(-c2ccccc2)c1C(=O)Nc1nc(-c2ccccn2)nc2ccsc12 | 7.63
88 | Cc1cccc2nc(-c3cccc(-c4cccc(NC(=O)c5cncn5C)c4)c3)[nH]c12 | 1.79
89 | CN(C)c1ccc2c(c1)Sc1cc(N(C)C)ccc1N2C(=O)c1cccc(C(=O)O)c1 | 3.68
90 | CC(C)(C)c1cc(C(=O)Nc2ccc(C(=N)N)cc2)c(O)c(C(C)(C)C)c1 | 11.4
91 | Cc1ccc2[nH]c(-c3cc(-c4cccc(CCN5CCOCC5)c4)cnc3N)nc2c1 | 6.67
92 | CC(C)N1CCN(C(CN2CCN(CCCOc3cccc(-c4ccccc4)c3)CC2)c2ccc(F)cc2)CC1 (centres undefined) | 16
93 | O=C(Nc1ccc(C(F)(F)F)cc1)c1ccc(NCCCN2CCCCCC2)c([N+](=O)[O-])c1 | 6.47
94 | CC(=O)C=C1CC(=O)N(C[C@@H](O)[C@H]2O[C@@H]3OC(C)(C)O[C@@H]3[C@H]2O)c2ccccc2N1 | -0
